Experimental data published in the supplement of paper PMC4604168 (melanoma cell lines).
This is one part of the list. Repeats are few or missing, and single values can be far off.

What was measured:
Assay in all cases: cell count relative to DMSO control; melanoma cells; higher = more viable cells
Conditions in all cases: library dose: standard library concentration; 72 h
G361 = system: G361
IPC-298 = system: IPC-298
IST-MEL1 = system: IST-MEL1
LB2518-MEL = system: LB2518-MEL
LOXIMVI = system: LOXIMVI
MEL-HO = system: MEL-HO
MZ2-MEL = system: MZ2-MEL
MeWo = system: MeWo
RPMI7951 = system: RPMI7951
RVH-421 = system: RVH-421
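Further: cells treated in 1,536-well plates, then fixed and DAPI-stained, with nuclei counted from automated high-throughput microscope images.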

Row | Structure (SMILES) | cell count (G361) | cell count (IPC-298) | cell count (IST-MEL1) | cell count (LB2518-MEL) | cell count (LOXIMVI) | cell count (MEL-HO) | cell count (MZ2-MEL) | cell count (MeWo) | cell count (RPMI7951) | cell count (RVH-421)
1 | O=C(CCCCCCC(=O)Nc1ccccc1)NO [vorinostat] + CN(NC(=O)CC(=O)NN(C)C(=S)c1ccccc1)C(=S)c1ccccc1 [STA4783] (first compound 0.4 µM, partner dose 0.03 µM) | 23.3% | 69.3% | 37.8% | 23% | 35.9% | 83.8% | 99% | 20.1% | 54.2% | 53.8%
2 | O=C(CCCCCCC(=O)Nc1ccccc1)NO [vorinostat] + COC(=O)c1sccc1S(=O)(=O)Nc1ccc(Nc2ccccc2)cc1OC [GSK0660] (first compound 0.4 µM, partner dose 5 µM) | 73.6% | 72.4% | 96.9% | 93.4% | 95% | 100% | 78.5% | 88.7% | 75.4% | 95.4%
3 | OCc1c[nH]c2ccccc12 [Indole-3-carbinol] + C[C@]1(c2nc3c(C(N)=O)cccc3[nH]2)CCCN1 [Veliparib] (first compound 4 µM, partner dose 7 µM) | 103% | 94.1% | 111% | 93.6% | 92.5% | 95.3% | 98.7% | 132% | 123% | 105%
4 | Nc1cccc2c1CN(C1CCC(=O)NC1=O)C2=O (stereo not given) [lenalidomide] + CN(NC(=O)CC(=O)NN(C)C(=S)c1ccccc1)C(=S)c1ccccc1 [STA4783] (first compound 5 µM, partner dose 0.03 µM) | 38.7% | 64.1% | 13.7% | 17.1% | 63.1% | 78.1% | 105% | 13.6% | 86.4% | 63.3%
5 | C#Cc1cccc(Nc2ncnc3cc(OCCOC)c(OCCOC)cc23)c1 [erlotinib] + Cc1nc(Nc2ncc(C(=O)Nc3c(C)cccc3Cl)s2)cc(N2CCN(CCO)CC2)n1 [dasatanib] (first compound 4 µM, partner dose 0.02 µM) | 70.6% | 52.2% | 63.3% | 69.8% | 24.5% | 73.7% | 45% | 69.4% | 30.6% | 37.7%
6 | O=C(CCCCCCC(=O)Nc1ccccc1)NO [vorinostat] + O=C(Nc1ccccc1)c1cc([N+](=O)[O-])ccc1Cl [GW9662] (first compound 0.4 µM, partner dose 10 µM) | 70.4% | 82.6% | 84.2% | 69.4% | 57.7% | 77.7% | 78% | 76.4% | 75% | 88.9%
7 | Clc1ccc(Nc2nnc(Cc3ccncc3)c3ccccc23)cc1 [vatalanib] + Cc1cc([N+](=O)[O-])ccc1NS(=O)(=O)c1cc(Cl)ccc1Cl [FH535] (first compound 10 µM, partner dose 5 µM) | 23.8% | 46.5% | 51.3% | 79.4% | 60.4% | 33.7% | 59.9% | 71.4% | 62.2% | 41.5%
8 | COCC[n+]1c2c(n(Cc3cnccn3)c1C)C(=O)c1ccccc1C2=O + O=C(Nc1cccc(Cl)c1)Nc1ncc(CCNc2ncnc3ccsc23)s1 [SNS314] (first compound 0.002 µM, partner dose 0.004 µM) | 40.8% | 48.8% | 36.7% | 31.4% | 45.3% | 58.9% | 27.5% | 30% | 38.2% | 87.4%
9 | Cn1c(Nc2ccc(C(F)(F)F)cc2)nc2cc(Oc3ccnc(-c4ncc(C(F)(F)F)[nH]4)c3)ccc21 + Nc1cccc2c1CN(C1CCC(=O)NC1=O)C2=O [lenalidomide] (first compound 0.4 µM, partner dose 5 µM) | 35.6% | 53.8% | 89.7% | 37.4% | 96.6% | 73.4% | 78.6% | 78.7% | 70.3% | 47.9%
10 | OCc1c[nH]c2ccccc12 [Indole-3-carbinol] + Cn1cncc1[C@@](N)(c1ccc(Cl)cc1)c1ccc2c(c1)c(-c1cccc(Cl)c1)cc(=O)n2C [tipifarnib] (first compound 4 µM, partner dose 0.05 µM) | 80% | 94% | 88.5% | 77.4% | 81.7% | 102% | 98.2% | 87.9% | 73.8% | 76.4%
11 | OCc1c[nH]c2ccccc12 [Indole-3-carbinol] + NC(=O)Nc1cc(-c2cccc(F)c2)sc1C(=O)N[C@H]1CCCNC1 [AZD7762] (first compound 4 µM, partner dose 0.1 µM) | 87.4% | 94.7% | 89.9% | 79.6% | 92.3% | 97.2% | 105% | 72.9% | 53.3% | 117%
12 | C#Cc1cccc(Nc2ncnc3cc(OCCOC)c(OCCOC)cc23)c1 [erlotinib] + Cn1cc(/C=C2\C(=O)Nc3cccnc32)c2ccccc21 [GW441756] (first compound 4 µM, partner dose 2 µM) | 72.8% | 70.3% | 96.5% | 59.9% | 77.1% | 83.5% | 80.9% | 72.6% | 73.9% | 103%
